The test system of this experiment is phospho-ERK. The experiment in a line: phospho-ERK ELISA in A431 cells. The class given is cell-based, human. The following applies: 80 nM of EGF ligand.

B1: P2X: affinity matured anti-EGFR monoclonal antibody (Bin2) of parental cd; VH SEQ ID NO: 21, VL SEQ ID NO: 22 (antibody, V domains shown)
VH: MGFGLSWLFLVAILKGVQCQVQLVQSGAEVKKPGSSVKVSCKASGGTFGSYAISWVRQAPGQGLEWMGSIIPIFGAANPAQKSQGRVTITADESTSTAYMELSSLRSEDTAVYYCAKMGRGKVAFDIWGQGTMVTVSS
VL: MGTPAQLLFLLLLWLPDTTGDIVMTQSPDSLAVSLGERATINCKSSQSVLYSPNNKNYLAWYQQKPGQPPKLLIYWASTRESGVPDRFSGSGSGTDFTLTISSLQAEDVAVYYCQQYYGSPITFGGGTKVEIK
On to B1, for which the “phospho-ERK inhibition with 80 nM EGF (in words)” value was “no inhibition”.

The values are drawn from patent US10072299B2, “Antibodies against epidermal growth factor receptor (EGFR) and uses thereof” (Merrimack Pharmaceuticals, Inc., priority 2011, dated 2018).
